# Measurements as given in the supplement of paper PMC12578646, “Prodrug florfenicol amine is activated by intrinsic resistance to target Mycobacterium abscessus” (Nature Microbiology, 2025).
# ± gives the standard deviation of the averaged measurements. M. abscessus ATCC 19977 and its deletion, point and complemented mutants after 5 days of drug at 37 °C plus 24 h of resazurin. Growth in % of untreated wells at the dose given (lower = more inhibition); checkerboards give % inhibition (higher = more inhibition); IC50 from the fitted curve (lower = more potent). No active / inactive call. IC50 values come from the same 384-well curves. Growth is not capped and can exceed 100%. The direction of the checkerboard scale is read from the raw signals. Capreomycin is a mixture.
# Tests used:
# [1] = tested on: Mycobacterium abscessus ATCC 19977 Eis2 E120fs
# Procedure: (§1)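 384-well two-fold dose series, two replicates; 5 days at 37 °C, then 24 h with resazurin; fluorescence scaled to growth and killed controls.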
# [2] = tested on: Mycobacterium abscessus ATCC 19977 Eis2 Y227D
# Procedure: as §1
# [3] = tested on: Mycobacterium abscessus ATCC 19977 Δeis2
# Procedure: as §1
# [4] = tested on: Mycobacterium abscessus ATCC 19977 WhiB7 F24fs
# Procedure: as §1
# [5] = tested on: Mycobacterium abscessus ATCC 19977 WhiB7 L37P
# Procedure: as §1
# [6] = tested on: Mycobacterium abscessus ATCC 19977 WhiB7 A51T
# Procedure: as §1
# [7] = tested on: Mycobacterium abscessus ATCC 19977 Eis2 Y255*
# Procedure: as §1
# [8] = tested on: Mycobacterium abscessus ATCC 19977 WhiB7 T70fs
# Procedure: as §1
# [9] = tested on: Mycobacterium abscessus ATCC 19977 Eis2 Y284*
# Procedure: as §1
# [10] = tested on: Mycobacterium abscessus ATCC 19977 Eis2 T258R
# Procedure: as §1
# [11] = tested on: Mycobacterium abscessus ATCC 19977 ΔwhiB7
# Procedure: as §1
# [12] = tested on: Mycobacterium abscessus ATCC 19977 WhiB7 R76del
# Procedure: as §1
# [13] = tested on: Mycobacterium abscessus ATCC 19977 Eis2 E120fs; assay: growth relative to untreated wells; higher = more growth (less inhibition)
# Procedure: as §1
# [14] = tested on: Mycobacterium abscessus ATCC 19977 Eis2 Y227D; assay: as above
# Procedure: as §1
# [15] = tested on: Mycobacterium abscessus ATCC 19977 Δeis2; assay: as above
# Procedure: as §1
# [16] = tested on: Mycobacterium abscessus ATCC 19977 WhiB7 F24fs; assay: as above
# Procedure: as §1
# [17] = tested on: Mycobacterium abscessus ATCC 19977 WhiB7 L37P; assay: as above
# Procedure: as §1
# [18] = tested on: Mycobacterium abscessus ATCC 19977 WhiB7 A51T; assay: as above
# Procedure: as §1
# [19] = tested on: Mycobacterium abscessus ATCC 19977 Eis2 Y255*; assay: as above
# Procedure: as §1
# [20] = tested on: Mycobacterium abscessus ATCC 19977 WhiB7 T70fs; assay: as above
# Procedure: as §1
# [21] = tested on: Mycobacterium abscessus ATCC 19977 Eis2 Y284*; assay: as above
# Procedure: as §1
structure (smiles),measurement,setting,value
CN(C)c1cc(CNCC(C)(C)C)c(O)c2c1C[C@H]1C[C@H]3[C@H](N(C)C)C(O)=C(C(N)=O)C(=O)[C@@]3(O)C(O)=C1C2=O [omadacycline],IC50,[1],0.921 µg/mL
same,IC50,[2],0.889 µg/mL
same,IC50,[3],0.845 µg/mL
same,IC50,[4],0.476 µg/mL
same,IC50,[5],0.505 µg/mL
same,IC50,[6],0.61 µg/mL
same,IC50,[7],0.908 µg/mL
same,IC50,[8],0.497 µg/mL
same,IC50,[9],1.01 µg/mL
same,IC50,[10],0.92 µg/mL
same,IC50,[11],0.557 µg/mL
same,IC50,[12],0.482 µg/mL
same,growth,[13]; 0.00625 µg/mL,95.1 ± 13%
same,growth,[13]; 0.0125 µg/mL,109 ± 7%
same,growth,[13]; 0.025 µg/mL,95 ± 7.2%
same,growth,[13]; 0.05 µg/mL,101 ± 8.5%
same,growth,[13]; 0.1 µg/mL,99.9 ± 4%
same,growth,[13]; 0.2 µg/mL,102 ± 13%
same,growth,[13]; 0.4 µg/mL,114 ± 7.3%
same,growth,[13]; 0.8 µg/mL,98 ± 8.4%
same,growth,[13]; 1.6 µg/mL,-2.64 ± 0.6%
same,growth,[13]; 3.2 µg/mL,-8.57 ± 0.2%
same,growth,[13]; 6.4 µg/mL,-9.29 ± 0.28%
same,growth,[13]; 12.8 µg/mL,-9.45 ± 0.61%
same,growth,[14]; 0.00625 µg/mL,100.9 ± 0.37%
same,growth,[14]; 0.0125 µg/mL,108 ± 8.8%
same,growth,[14]; 0.025 µg/mL,98.8 ± 5.8%
same,growth,[14]; 0.05 µg/mL,105 ± 8.1%
same,growth,[14]; 0.1 µg/mL,100 ± 9.1%
same,growth,[14]; 0.2 µg/mL,104 ± 3.9%
same,growth,[14]; 0.4 µg/mL,109 ± 6.8%
same,growth,[14]; 0.8 µg/mL,99.4 ± 22%
same,growth,[14]; 1.6 µg/mL,-1.86 ± 2%
same,growth,[14]; 3.2 µg/mL,-7.27 ± 0.52%
same,growth,[14]; 6.4 µg/mL,-7.66 ± 0.31%
same,growth,[14]; 12.8 µg/mL,-7.847 ± 0.028%
same,growth,[15]; 0.00625 µg/mL,92.8 ± 2.1%
same,growth,[15]; 0.0125 µg/mL,93.9 ± 6.6%
same,growth,[15]; 0.025 µg/mL,95 ± 3.8%
same,growth,[15]; 0.05 µg/mL,93.5 ± 2.7%
same,growth,[15]; 0.1 µg/mL,90.7 ± 1.9%
same,growth,[15]; 0.2 µg/mL,93.3 ± 4.7%
same,growth,[15]; 0.4 µg/mL,103 ± 4.1%
same,growth,[15]; 0.8 µg/mL,75.4 ± 46%
same,growth,[15]; 1.6 µg/mL,-1.85 ± 3.1%
same,growth,[15]; 3.2 µg/mL,-8.73 ± 0.15%
same,growth,[15]; 6.4 µg/mL,-9.304 ± 0.09%
same,growth,[15]; 12.8 µg/mL,-9.59 ± 0.72%
same,growth,[16]; 0.00625 µg/mL,101.2 ± 0.48%
same,growth,[16]; 0.0125 µg/mL,103 ± 1.1%
same,growth,[16]; 0.025 µg/mL,93.9 ± 2.2%
same,growth,[16]; 0.05 µg/mL,105 ± 10%
same,growth,[16]; 0.1 µg/mL,95 ± 7.6%
same,growth,[16]; 0.2 µg/mL,100.7 ± 0.3%
same,growth,[16]; 0.4 µg/mL,101 ± 4.2%
same,growth,[16]; 0.8 µg/mL,-1.1 ± 0.64%
same,growth,[16]; 1.6 µg/mL,-6.17 ± 0.68%
same,growth,[16]; 3.2 µg/mL,-8.44 ± 0.56%
same,growth,[16]; 6.4 µg/mL,-8.98 ± 0.67%
same,growth,[16]; 12.8 µg/mL,-8.5 ± 0.46%
same,growth,[17]; 0.00625 µg/mL,92.9 ± 9%
same,growth,[17]; 0.0125 µg/mL,104 ± 3.6%
same,growth,[17]; 0.025 µg/mL,86.3 ± 1.7%
same,growth,[17]; 0.05 µg/mL,100 ± 12%
same,growth,[17]; 0.1 µg/mL,100.4 ± 0.19%
same,growth,[17]; 0.2 µg/mL,102 ± 7.2%
same,growth,[17]; 0.4 µg/mL,106 ± 2.8%
same,growth,[17]; 0.8 µg/mL,-2.2 ± 0.47%
same,growth,[17]; 1.6 µg/mL,-6.56 ± 0.083%
same,growth,[17]; 3.2 µg/mL,-8.31 ± 0.68%
same,growth,[17]; 6.4 µg/mL,-8.73 ± 0.47%
same,growth,[17]; 12.8 µg/mL,-8.23 ± 0.53%
same,growth,[18]; 0.00625 µg/mL,92.9 ± 6.1%
same,growth,[18]; 0.0125 µg/mL,102 ± 5.9%
same,growth,[18]; 0.025 µg/mL,87.18 ± 0.66%
same,growth,[18]; 0.05 µg/mL,103 ± 3%
same,growth,[18]; 0.1 µg/mL,82 ± 4%
same,growth,[18]; 0.2 µg/mL,93.9 ± 5.3%
same,growth,[18]; 0.4 µg/mL,102 ± 12%
same,growth,[18]; 0.8 µg/mL,9.62 ± 15%
same,growth,[18]; 1.6 µg/mL,-7.13 ± 0.6%
same,growth,[18]; 3.2 µg/mL,-9.19 ± 0.77%
same,growth,[18]; 6.4 µg/mL,-9.64 ± 0.26%
same,growth,[18]; 12.8 µg/mL,-9.55 ± 0.85%
same,growth,[19]; 0.00625 µg/mL,95.8 ± 9.5%
same,growth,[19]; 0.0125 µg/mL,104 ± 9.1%
same,growth,[19]; 0.025 µg/mL,85.9 ± 6.6%
same,growth,[19]; 0.05 µg/mL,101 ± 5.2%
same,growth,[19]; 0.1 µg/mL,96.1 ± 2.7%
same,growth,[19]; 0.2 µg/mL,100 ± 9.3%
same,growth,[19]; 0.4 µg/mL,103 ± 4.1%
same,growth,[19]; 0.8 µg/mL,94.1 ± 1%
same,growth,[19]; 1.6 µg/mL,-3.7 ± 3.4%
same,growth,[19]; 3.2 µg/mL,-9.57 ± 2.3%
same,growth,[19]; 6.4 µg/mL,-10.6 ± 2.3%
same,growth,[19]; 12.8 µg/mL,-10.3 ± 2.2%
same,growth,[20]; 0.00625 µg/mL,92.73 ± 0.73%
same,growth,[20]; 0.0125 µg/mL,105 ± 3.5%
same,growth,[20]; 0.025 µg/mL,100 ± 1.7%
same,growth,[20]; 0.05 µg/mL,105 ± 3.7%
same,growth,[20]; 0.1 µg/mL,93.9 ± 6.6%
same,growth,[20]; 0.2 µg/mL,97.2 ± 1.9%
same,growth,[20]; 0.4 µg/mL,101.2 ± 0.77%
same,growth,[20]; 0.8 µg/mL,-3.27 ± 1.7%
same,growth,[20]; 1.6 µg/mL,-8.89 ± 1.6%
same,growth,[20]; 3.2 µg/mL,-7.32 ± 2.9%
same,growth,[20]; 6.4 µg/mL,-10.5 ± 0.94%
same,growth,[20]; 12.8 µg/mL,-10.4 ± 1%
same,growth,[21]; 0.00625 µg/mL,101 ± 6.9%
same,growth,[21]; 0.0125 µg/mL,98.6 ± 4.5%
same,growth,[21]; 0.025 µg/mL,96.9 ± 8.4%
same,growth,[21]; 0.05 µg/mL,98.2 ± 7.1%
same,growth,[21]; 0.1 µg/mL,96.1 ± 7.2%
same,growth,[21]; 0.2 µg/mL,98.9 ± 3.9%
same,growth,[21]; 0.4 µg/mL,102 ± 7.1%
same,growth,[21]; 0.8 µg/mL,105 ± 4.5%
same,growth,[21]; 1.6 µg/mL,-1.98 ± 0.78%
same,growth,[21]; 3.2 µg/mL,-8.2832 ± 0.00018%
same,growth,[21]; 6.4 µg/mL,-8.934 ± 0.053%
same,growth,[21]; 12.8 µg/mL,-9.13 ± 0.36%
